# Results published in the supplement of paper PMC10369915.
# This is one part of the list. Cut-off read from the data, not from the text of the source: active = 3.2 or more and inactive = the rest. Most of these values are background signal.
# What was measured:
# Assay in all cases: enrichment score (SH2-bound / input frequency) (ratio); bacterial display of known human phosphotyrosine sites (pTyr-Var adds point mutants) read by sequencing; higher = stronger binding; tyrosines were phosphorylated by kinases first
# Conditions in all cases: peptide library: pTyr-Var
# SHP2 C-SH2 domain E139D = target: SHP2 C-SH2 domain E139D
# [1] = target: SHP2 C-SH2 domain wild-type
# SHP2 N-SH2 domain L43F = target: SHP2 N-SH2 domain L43F
# SHP2 N-SH2 domain T42A = target: SHP2 N-SH2 domain T42A
# SHP2 N-SH2 domain T52S = target: SHP2 N-SH2 domain T52S
# [2] = target: SHP2 N-SH2 domain wild-type
# 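Note: displayed peptides selected on beads carrying the immobilized SH2 domain, with library peptides lacking any tyrosine serving as negative controls.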
Binder,enrichment score (SHP2 C-SH2 domain E139D),enrichment score [1],enrichment score (SHP2 N-SH2 domain L43F),enrichment score (SHP2 N-SH2 domain T42A),enrichment score (SHP2 N-SH2 domain T52S),enrichment score [2]
YRTPGYREVVI [TNS2_Y673_A670T],inactive: 1.03,inactive: 0.876,inactive: 1.61,inactive: 1.36,inactive: 1.43,inactive: 0.844
SNFRAYATEPH [TNNI3_Y29_YF],inactive: 0.469,inactive: 0.49,inactive: 0.482,inactive: 0.457,inactive: 0.464,inactive: 0.45
SVTCTYPPALN [TP53_Y126_S127P],inactive: 0.68,inactive: 0.736,inactive: 0.73,inactive: 0.556,inactive: 0.642,inactive: 1.04
SVTCTYSPALD [TP53_Y126_N131D],inactive: 0.925,inactive: 1.42,inactive: 0.995,inactive: 1.86,inactive: 0.951,inactive: 1.51
TGDFGYRTPGF [TNS2_Y668_A670T_YF],inactive: 0.466,inactive: 0.414,inactive: 0.603,inactive: 0.451,inactive: 0.58,inactive: 0.539
GGDGSYVSVPS [TNNI3K_Y425],inactive: 0.58,inactive: 0.364,inactive: 0.513,inactive: 0.425,inactive: 0.493,inactive: 0.7
SVTGTYSPALN [TP53_Y126_C124G],inactive: 0.766,inactive: 0.751,inactive: 0.664,inactive: 0.783,inactive: 0.623,inactive: 0.779
SGGLDYGMVGG [TNRC6B_Y1382_M1380L],inactive: 0.603,inactive: 0.577,inactive: 0.657,inactive: 0.554,inactive: 0.465,inactive: 0.769
LLNPSYNLPLD [TOM1L1_Y109_R108S],inactive: 1.33,inactive: 0.928,inactive: 1.12,inactive: 1.07,inactive: 1.37,inactive: 1.74
SVTCTYSPAFN [TP53_Y126_L130F],inactive: 0.865,inactive: 1.63,inactive: 1.34,inactive: 0.861,inactive: 0.87,inactive: 1.72
VDEERYDIEAK [TNNI3_Y112],inactive: 0.52,inactive: 0.518,inactive: 0.493,inactive: 0.478,inactive: 0.556,inactive: 0.464
SVTCTYYPALN [TP53_Y126_S127Y],inactive: 0.779,inactive: 1.18,inactive: 0.824,inactive: 0.765,inactive: 0.703,inactive: 1.25
IPGMEYLVSII [TNC_Y1775_V1773M],inactive: 1.14,inactive: 1.48,inactive: 1.18,inactive: 1.08,inactive: 1.32,inactive: 1.13
TYGQVYKGRHV [TNIK_Y40],inactive: 0.851,inactive: 0.925,inactive: 1.15,inactive: 0.688,inactive: 1.03,inactive: 0.959
SVTCAYSPALN [TP53_Y126_T125A],inactive: 0.822,inactive: 1.01,inactive: 0.845,inactive: 0.726,inactive: 0.85,inactive: 1.18
SVTCTYSPALS [TP53_Y126_N131S],inactive: 1.23,inactive: 1.11,inactive: 1.25,inactive: 0.821,inactive: 0.831,inactive: 1.05
PPGRSYSPCDF [TNS1_Y793_Y796C_YF],inactive: 0.673,inactive: 0.67,inactive: 0.85,inactive: 0.809,inactive: 0.676,inactive: 0.82
FFRCHYPLTTL [TNS4_Y644_R642C],inactive: 1.09,inactive: 1.22,inactive: 0.953,inactive: 1.35,inactive: 1.09,inactive: 1.4
VDEERYDIEGK [TNNI3_Y112_A116G],inactive: 0.357,inactive: 0.555,inactive: 0.341,inactive: 0.46,inactive: 0.431,inactive: 0.692

Binder,enrichment score (SHP2 C-SH2 domain E139D),enrichment score [1],enrichment score (SHP2 N-SH2 domain L43F),enrichment score (SHP2 N-SH2 domain T42A),enrichment score (SHP2 N-SH2 domain T52S),enrichment score [2]
FSPCDYQPCLA [TNS1_Y798_Y796C_YF],active: 3.38,inactive: 3.04,active: 3.82,inactive: 2.83,active: 3.26,inactive: 2.69
PPPPAYDDMAQ [TNK2_Y635_V638M],inactive: 0.414,inactive: 0.475,inactive: 0.575,inactive: 0.453,inactive: 0.506,inactive: 0.62
SNFRAYATEPQ [TNNI3_Y29_H34Q_YF],inactive: 0.551,inactive: 0.51,inactive: 0.515,inactive: 0.571,inactive: 0.656,inactive: 0.44
GARGRYVMGGP [TNK1_Y277],inactive: 0.346,inactive: 0.258,inactive: 0.371,inactive: 0.389,inactive: 0.382,inactive: 0.505
SVTCTYSPAIN [TP53_Y126_L130I],inactive: 1.5,inactive: 1.65,inactive: 1.75,active: 4.07,inactive: 1.19,inactive: 2.43
PPGRSYSPFDF [TNS1_Y793_YF],inactive: 0.836,inactive: 0.926,inactive: 0.991,inactive: 0.866,inactive: 0.868,inactive: 0.648
SVTYTYSPALN [TP53_Y126_C124Y],inactive: 0.672,inactive: 0.979,inactive: 0.847,inactive: 0.988,inactive: 0.617,inactive: 1.08
SVTCPYSPALN [TP53_Y126_T125P],inactive: 0.876,inactive: 1.01,inactive: 1.03,inactive: 0.781,inactive: 0.799,inactive: 1.12
SVTCTYSPALI [TP53_Y126_N131I],inactive: 1.03,inactive: 1.5,inactive: 1.04,inactive: 0.954,inactive: 0.671,inactive: 1.52
FRAPGYREVVI [TNS2_Y673_YF],inactive: 1.16,inactive: 0.915,inactive: 1.26,inactive: 1.14,inactive: 1.39,inactive: 0.999
SVTCTYSPALF [TP53_Y126_N131Y_YF],inactive: 0.922,inactive: 1.19,inactive: 1.28,inactive: 0.875,inactive: 0.956,inactive: 1.58
SVTFTYSPALN [TP53_Y126_C124Y_YF],inactive: 0.945,inactive: 0.87,inactive: 0.848,inactive: 0.71,inactive: 0.741,inactive: 1
SVTCRYSPALN [TP53_Y126_T125R],inactive: 1.37,inactive: 1.03,inactive: 0.982,inactive: 0.657,inactive: 0.552,inactive: 0.922
TSKLSYLDPRI [TOP1_Y723_N722S],inactive: 0.742,inactive: 0.689,inactive: 0.907,inactive: 0.936,inactive: 0.784,inactive: 0.861
SVTCTYSPDLN [TP53_Y126_A129D],inactive: 1.36,inactive: 1.35,inactive: 1.29,inactive: 0.853,inactive: 0.976,inactive: 1.73
LLNPRYNLPLD [TOM1L1_Y109],inactive: 0.992,inactive: 0.701,inactive: 0.91,inactive: 0.867,inactive: 0.768,inactive: 0.807
QSGGQYSSQGL [TNNI3K_Y788_A785G],inactive: 0.554,inactive: 0.575,inactive: 0.436,inactive: 0.364,inactive: 0.456,inactive: 0.684
SVTCTYSPALK [TP53_Y126_N131K],inactive: 0.832,inactive: 1.08,inactive: 0.95,inactive: 0.727,inactive: 0.716,inactive: 1.21
